This note sets out measurements from the supplement of paper PMC11417369.

This is one part of the list.

The test system of the assay is PfSIP2 AP2 domain 1 (GST-tagged). Description: gcPBM binding intensity (ln(normalized median fluorescence intensity)); higher = stronger DNA binding. An outline of the steps:
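GST-tagged P. falciparum DNA-binding domains produced in E. coli were incubated for 1 h on an Agilent 4 × 180k array of primer-extended double-stranded 36-bp intergenic genomic probes with negative controls. Binding intensity is the highest Masliner-normalised natural-log median intensity across replicate spots of either probe orientation, with bound protein detected by Alexa488 anti-GST antibody at 488 nm.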
On to “GTATTATTCTATAGAAGTACAGTATATTATTATTTA [XGTACX_site5073]”, for which the “gcPBM binding intensity (ln)” value is 7.6.
Next, “TACAACAAGTAATGGTGTACATTATATTATGTAATA [XGTACX_site1194]”: 6.98.
In the case of “TATAACAATTTTTATGCATGCGACTATAATATTTTT [TGCATGCA_site508]” it was 6.81; in that of “TAAGGATTGGTATAAAGTACAGGAGTAAATTGAAAA [XGTACX_site8525]”, 7.06; in that of “TACATATTGAATAAGACACACATATATATATATATA [CACACA_site1878]”, 9.24.
In the case of “CATACACATATATATTGTACACATATATGTATGTAT [XGTACX_site4030]” it was 7.07; in that of “ATATTTTTTTTTTATTGTACCCTCATAAAAGAAAAG [XGTACX_site773]”, 7.23; in that of “AATAAATATAAATACACACCCATATAAATATAAATA [CACACA_site7264]”, 6.87.
Consider “ACAAAGATAAAACATAAAATATATCAAACATAAAAT [XGTACX_negctrl_site198]”, for which the “gcPBM binding intensity (ln)” value was determined as 7.05.
In the case of “AAAAAAAATACATGTTGTACGGTACAAATATAAAGT [XGTACX_site2863]” it was 7.53.
Next, “AAAATAATAAAAAAAAAAAAAAAAAAAAAAAAGTAT [TGCATGCA_negctrl_site193]”: 6.81.
In the case of “ATATATCTTCTTTGCACACTTAAAGGGAAGTGATAA [CACACA_site342]” it was 7.35; in that of “AAAAAAATAATAAAATGTACAAATAAACACATAAAG [XGTACX_site5102]”, 7.24.
On to “AAATAAAATAAAACAACACACACGAATGTATAAATA [CACACA_site885]”, for which the “gcPBM binding intensity (ln)” value amounted to 6.93.
Regarding “TAATGTATCTAAAATTGTACAAATATAAATCTAAAT [XGTACX_site1197]”, the “gcPBM binding intensity (ln)” value worked out at 6.97.
Next, “CGCGCCCAGAAACACACACACACACCGATATATATA [CACACA_site5250]”: 7.62.
Next, “TTATTTATGAAGTATACACACAATATATATATATAT [CACACA_site1248]”: 8.99; “TTAATCCACAGACACACACACACAAAATAAAATACA [CACACA_site244]”: 7.22.
In the case of “TAGTTCTTTTAATTTAGTATTATACAATATTGGAAA [CACACA_negctrl_site521]” it was 6.81.
As to “AATATATTAAATATTACACACATACATTTAGTGTAA [CACACA_site5145]”, the “gcPBM binding intensity (ln)” value was 7.07.
In the case of “TATATATTAAACTTTGCACACATAATTTAACTACAA [CACACA_site3440]” it was 7.4; in that of “TTTATTTTATTCACTATCATAAGCAAAACTTAAACA [GTGCAC_negctrl_site287]”, 6.88.
In the case of “ATTAATAATATTACATGTACATAATATAATTGAAAA [XGTACX_site5084]” it was 7.14; in that of “TAGTTAATATGATTATGTACATATATATATTAATTT [XGTACX_site1750]”, 7.13.
On to “TTAGATATTATTATATGTACATATTATATGTATTAT [XGTACX_site3836]”, for which the “gcPBM binding intensity (ln)” value was found to be 7.02.
In the case of “ATTTTTTTTTTTTTTTTTTTTTTTTTTTTTGTTGTT [CACACA_negctrl_site1313]” it was 7.02; in that of “TGTATATGAAAAAATAGTACTCATATAAATATCTTT [XGTACX_site6542]”, 6.89; in that of “ATAATATATTTATAAACACACAAAAAAAGTTATATA [CACACA_site6831]”, 6.95.
For the sequence “ATATACATATCAATGTAATATTATATACTTTTTTAG [CACACA_negctrl_site816]”, the “gcPBM binding intensity (ln)” value was 6.77.
With “AAAAAAATAAATAAATGTACATATATAAAACATTGT [XGTACX_site2136]”, the “gcPBM binding intensity (ln)” value came out at 6.94.
As to “ATATAATTATATTCCATACACACATATATTTAAAGG [CACACA_site2958]”, the “gcPBM binding intensity (ln)” value was 7.04.
Next, “AAACGAGAACATAATAAATACATAAATAAATAAATA [GTGCAC_negctrl_site433]”: 6.77; “ATATTTTCCCTTGTTTTACACACGTGCTGATATGAG [CACACA_site8672]”: 7.42.
In the case of “AATTTGAAATATGTGGTGCAGTTATATAATATGTTT [GTGCAC_site9885]” it was 10.3; in that of “TGTAGTCTGGAGAAAAGTACACAGTATCTGGTAACC [XGTACX_site2033]”, 7.09; in that of “ATATAGAATAAAACTATACACACCTATATTTAAACA [CACACA_site1902]”, 6.81.
In the case of “ATATAAAAAAATAATAAATAAATAAAAAGATTTCTT [XGTACX_negctrl_site110]” it was 6.78; in that of “CTTGTATAGAAACACACACACACTTTCTTTTTTTAA [CACACA_site1964]”, 6.95.
With “TATATTAATAAAGGTACTACACGGAAATGGAAATAT [XGTACX_site7760]”, the “gcPBM binding intensity (ln)” value is 7.54.
Consider “AACAAATACGAACACACACACACACTAAAAAAAAAA [CACACA_site6386]”, for which the “gcPBM binding intensity (ln)” value stood at 7.27.
On to “AGGATATAATACCATACACACATTTATAAAATAACA [CACACA_site1930]”, for which the “gcPBM binding intensity (ln)” value came to 7.15.
“ATATATATTATATATATATATATATATATATATATA [CACACA_negctrl_site493]”: the “gcPBM binding intensity (ln)” value came out at 9.06.
As for “ATAATATGAAAACACACACACACACCCAAAAAAAAA [CACACA_site2011]”, the “gcPBM binding intensity (ln)” value is 7.13.
Next, “TGTAATCAAAAAAATAGTACATAAATTGTGTATACT [XGTACX_site5908]”: 6.96.
On to “TAATAAATAAATGACACACACACACGCAAAAAAAAA [CACACA_site7275]”, for which the “gcPBM binding intensity (ln)” value stood at 7.06.
In the case of “TAGATTTTTATGCGTGCACACATTTAAAAAAAAAAC [CACACA_site3421]” it was 8.88; in that of “ATACCTACATACATACGTACATATATATATATAATG [XGTACX_site234]”, 7.52; in that of “TTTTAATAAATTCAAAACATAAAAAGGAAAAAAAAA [XGTACX_negctrl_site471]”, 6.65.
In the case of “AAATATAATAACATAACACACACATGTATTTATAGG [CACACA_site8009]”, the “gcPBM binding intensity (ln)” value amounted to 6.83.
Next, “TATAATGAGAAGATATAATATATAGGGGGTAATTCT [GTGCAC_negctrl_site228]”: 6.83; “TTTTTTTCATAAGAAGCACACAAAAAATGATAGAGA [CACACA_site8401]”: 7.56; “ATATATATATATATATGTACTTATTTGTATAAATAC [XGTACX_site8031]”: 9.32.
As to “ATTCTTTATTATTCGCCACACACATATATATATATA [CACACA_site9009]”, the “gcPBM binding intensity (ln)” value worked out at 9.44.
Next, “TATTGGAAAATTAGAAGTACTTTCATATATTAGACT [XGTACX_site4503]”: 7.1; “TTTTTATTATTCCATAGTACAGAAAAAATGATATAT [XGTACX_site3431]”: 7.14.
Next, “CATATGTCTTGAGATCGTACGTTATTTTTTTTATTT [XGTACX_site1381]”: 6.91; “TGGTAAATTTACCGTTGTACATTCATTTATAACATT [XGTACX_site8910]”: 7.03.
In the case of “AAAAATTATATATATATATATATATATATATGTATA [GTGCAC_negctrl_site488]” it was 7.77; in that of “AAGAATATTAATATAAATAAGTAAATAAATAAATAA [CACACA_negctrl_site417]”, 6.99; in that of “TATAAATTTAAAATGACACACACTAAAATTATTTAA [CACACA_site1239]”, 6.72.
In the case of “TATATATATATATATATATATATATATATATGTATA [TGCATGCA_negctrl_site17]”, the “gcPBM binding intensity (ln)” value worked out at 9.32.
Next, “GTATTATTATTATGCACACAAAAATATTTATACATA [CACACA_site3656]”: 7.64.
Turning to “ACATACACATATACATGTACATATATATATATATAT [XGTACX_site5082]”, the “gcPBM binding intensity (ln)” value worked out at 9.71.
Next, “CTATTTCAATTTAGTGCACACATTTTAATTTATAAG [CACACA_site2040]”: 10.5.
In the case of “CATTATTATTAACATACACACGTGTTAAATACACCC [CACACA_site6118]” it was 7.25.
In the case of “TATGAAAAGATATATACACACATAATAAAGGTATAT [CACACA_site7713]” it was 7.14; in that of “ATTAAAACAAAATGTACACACATATCATTTAATGAC [CACACA_site6543]”, 7.12.
Consider “TTTTAATCTTAATTATGTACATATAAAATGTGTATA [XGTACX_site7382]”, for which the “gcPBM binding intensity (ln)” value came out at 6.99.
In the case of “ATATTCATTAACCACACACACAAAAAAAATAAAATT [CACACA_site3801]” it was 7.15; in that of “ATATATGTATTTAATACACACAAAACTTTCATTCCA [CACACA_site3531]”, 6.9.
In the case of “ATACATATATGCTTCTGTACACATAATTTATAAAAA [XGTACX_site7000]” it was 7.31; in that of “TTTTTAGAAAGACATGCATGTAATAAAAATAAATAA [TGCATGCA_site685]”, 7.1; in that of “AATTTTGTTAAAAGGACACACAATTCAATATATTAA [CACACA_site647]”, 6.99.
Next, “TACACGTTCTACATTTGTACTTAATTTATACATAAG [XGTACX_site1579]”: 7.17; TACGTCTTTTTTTTGGTGCATAATTTTTTTGTACAA: 10.9.
As to “GCTATTAATTTATAAGCACACAATATAAATATATAT [CACACA_site2251]”, the “gcPBM binding intensity (ln)” value came out at 7.09.
In the case of “ATTACATGATATATCACACACACATATAGATATATA [CACACA_site7352]” it was 7.27; in that of “TATGTCGACATTTAAAGTACAAAAAAAAAAAAAAAA [XGTACX_site8985]”, 7.13.
Next, “ATTTATTTAAACAAATCACACACAAATATATATACA [CACACA_site8622]”: 7.14; “TATATTAAAATATTCACACACTAACGTAAATCATTG [CACACA_site5520]”: 6.84; “TATATATGTGTTATATACCCTTTTTTATATATTAAT [XGTACX_negctrl_site313]”: 6.91.
In the case of “CATACATAGATATATACACACATACCTATAAATACA [CACACA_site6513]” it was 7.32.
With “TAAAAATCCACAAGCACACAAATGTACATATATATA [CACACA_site2462]”, the “gcPBM binding intensity (ln)” value stood at 7.36.
In the case of “TATAAAAAGCATAACACACACATGTCAATATATATA [CACACA_site1111]” it was 7.34.
Next, “ATAGAACAGAAAAGGCGTACAATAATATGTAAACAA [XGTACX_site2828]”: 7.53.
In the case of “AAAAAAAAAATATGTACACACATATATAATACATAA [CACACA_site1639]” it was 7.21.
In the case of “AGAAAAGAGAAAAGTAGTACAAAGGATCATTTAAAA [XGTACX_site5294]”, the “gcPBM binding intensity (ln)” value is 6.97.
Next, “TTAAGTCCGTTAACAGTGCATTTTTTCTTTTATGTA [GTGCAC_site9867]”: 8.46.
